Test results as given in article PMC4081100.
The list shows a part of the results, in another mix than the full data. For some assays here: At the low end of the ranking, values are background and their order means little. This is one part of the list. For some assays here: The source does not settle which construct or isoform was used.

Tests used:
Assay in all cases: universal protein binding microarray (PBM)
Conditions in all cases: transcription factors of Arabidopsis thaliana; high values mean tight binding; most listed sequences are background and not binding sites; double strand, one strand shown
[1] = molecular target: T1, GST-ANAC092(1-176) (UniProt Q9FKA0)
T1 sequence: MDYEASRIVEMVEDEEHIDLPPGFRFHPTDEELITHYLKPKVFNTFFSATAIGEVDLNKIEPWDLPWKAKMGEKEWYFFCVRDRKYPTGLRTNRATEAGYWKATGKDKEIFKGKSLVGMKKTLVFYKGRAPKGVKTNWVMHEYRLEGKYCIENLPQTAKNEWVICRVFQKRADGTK

[2] = molecular target: GST-NTL6(1-168) (UniProt Q9SCK6)
[3] = molecular target: T2, GST-ANAC055(1-171) (UniProt Q9LDY8)
T2 sequence: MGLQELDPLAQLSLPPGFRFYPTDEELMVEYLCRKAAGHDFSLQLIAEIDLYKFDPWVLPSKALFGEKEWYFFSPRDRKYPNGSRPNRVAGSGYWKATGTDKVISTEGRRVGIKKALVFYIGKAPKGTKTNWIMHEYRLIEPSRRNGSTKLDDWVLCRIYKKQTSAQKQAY

[4] = molecular target: T3, GST-ATAF1 NAC domain (UniProt Q39013)
T3 sequence: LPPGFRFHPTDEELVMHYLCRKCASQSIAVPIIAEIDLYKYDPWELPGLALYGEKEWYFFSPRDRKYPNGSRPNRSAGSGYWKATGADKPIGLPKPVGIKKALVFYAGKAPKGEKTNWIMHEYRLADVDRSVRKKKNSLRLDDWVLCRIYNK

[5] = molecular target: T4, GST-ANAC092(1-285) full length (UniProt Q9FKA0)
T4 sequence: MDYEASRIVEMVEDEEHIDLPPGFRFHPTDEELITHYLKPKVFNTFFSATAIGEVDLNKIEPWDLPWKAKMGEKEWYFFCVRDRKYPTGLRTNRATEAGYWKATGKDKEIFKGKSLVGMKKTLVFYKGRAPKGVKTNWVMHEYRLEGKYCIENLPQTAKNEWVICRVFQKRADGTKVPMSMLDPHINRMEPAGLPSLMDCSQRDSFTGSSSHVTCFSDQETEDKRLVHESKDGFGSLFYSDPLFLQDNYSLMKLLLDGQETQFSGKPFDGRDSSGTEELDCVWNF

[6] = molecular target: T5, GST-NAP(1-166) (UniProt O49255)
T5 sequence: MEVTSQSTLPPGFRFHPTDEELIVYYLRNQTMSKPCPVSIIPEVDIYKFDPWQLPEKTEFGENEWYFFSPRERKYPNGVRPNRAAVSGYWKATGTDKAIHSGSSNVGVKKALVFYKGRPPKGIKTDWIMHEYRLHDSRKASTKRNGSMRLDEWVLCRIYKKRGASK

[7] = molecular target: T6, GST-NST2(1-184) (UniProt Q9M274)
T6 sequence: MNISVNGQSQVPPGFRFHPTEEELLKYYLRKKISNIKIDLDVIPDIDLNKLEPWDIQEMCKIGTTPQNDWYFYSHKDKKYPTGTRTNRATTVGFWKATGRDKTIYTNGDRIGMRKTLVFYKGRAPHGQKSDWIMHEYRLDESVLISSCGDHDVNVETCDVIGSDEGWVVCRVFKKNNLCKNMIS

[8] = molecular target: T7, GST-VND3 NAC domain (UniProt Q9FH59)
T7 sequence: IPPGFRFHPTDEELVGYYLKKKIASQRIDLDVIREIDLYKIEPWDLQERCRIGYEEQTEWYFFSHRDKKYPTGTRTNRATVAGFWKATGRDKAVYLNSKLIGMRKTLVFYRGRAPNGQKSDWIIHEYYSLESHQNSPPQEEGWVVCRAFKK

[9] = molecular target: T8, GST-VND7 NAC domain (UniProt Q9C8W9)
T8 sequence: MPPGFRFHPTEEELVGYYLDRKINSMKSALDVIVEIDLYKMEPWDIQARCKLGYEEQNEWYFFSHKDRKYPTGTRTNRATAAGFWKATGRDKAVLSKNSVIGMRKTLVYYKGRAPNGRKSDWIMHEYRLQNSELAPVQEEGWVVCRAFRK

[10] = molecular target: T9, GST-VOZ2 (Arabidopsis thaliana) (UniProt Q9SLB9)
T9 sequence: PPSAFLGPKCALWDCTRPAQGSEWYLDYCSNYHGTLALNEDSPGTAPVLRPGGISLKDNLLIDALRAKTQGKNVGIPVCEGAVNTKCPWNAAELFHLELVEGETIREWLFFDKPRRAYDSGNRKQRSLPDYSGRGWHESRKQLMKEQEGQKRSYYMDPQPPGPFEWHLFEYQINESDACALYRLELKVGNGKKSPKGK

[11] = molecular target: GST-WRKY1(266-371) (UniProt Q9SI37)
[12] = molecular target: T10, GST-ANAC019 NAC domain (UniProt Q9C932)
T10 sequence: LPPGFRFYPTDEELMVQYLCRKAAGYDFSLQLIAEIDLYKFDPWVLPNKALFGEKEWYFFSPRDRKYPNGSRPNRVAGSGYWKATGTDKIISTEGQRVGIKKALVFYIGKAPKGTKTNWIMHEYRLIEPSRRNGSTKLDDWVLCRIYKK

[13] = molecular target: T11, GST-NTL8 NAC domain (UniProt Q9XIN7)
T11 sequence: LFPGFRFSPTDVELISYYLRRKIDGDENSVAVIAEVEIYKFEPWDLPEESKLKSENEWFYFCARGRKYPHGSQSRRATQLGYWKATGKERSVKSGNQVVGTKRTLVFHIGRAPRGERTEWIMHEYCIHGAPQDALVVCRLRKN

[14] = molecular target: T12, GST-SND1(1-203) (UniProt Q9LPI7)
T12 sequence: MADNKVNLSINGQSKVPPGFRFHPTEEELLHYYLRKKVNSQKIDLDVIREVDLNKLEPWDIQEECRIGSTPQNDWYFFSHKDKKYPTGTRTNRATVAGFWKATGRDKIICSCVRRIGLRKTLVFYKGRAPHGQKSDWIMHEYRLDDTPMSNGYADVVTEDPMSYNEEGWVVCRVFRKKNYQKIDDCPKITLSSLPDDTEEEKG

## CTGACTTC
[1]
  binding signal: -0.0317 E-score
[2]
  binding signal: 0.0065 E-score
[3]
  binding signal: -0.163 E-score
[4]
  binding signal: -0.0737 E-score
[5]
  binding signal: -0.2 E-score
[6]
  binding signal: -0.0175 E-score
[7]
  binding signal: -0.0152 E-score
[8]
  binding signal: -0.124 E-score
[9]
  binding signal: 0.00865 E-score
[10]
  binding signal: 0.0241 E-score
[11]
  binding signal: 0.412 E-score

## GTCAACGA
[1]
  binding signal: -0.0919 E-score
[2]
  binding signal: -0.165 E-score
[12]
  binding signal: 0.0209 E-score
[3]
  binding signal: -0.141 E-score
[4]
  binding signal: 0.0445 E-score
[5]
  binding signal: 0.0192 E-score
[6]
  binding signal: -0.0489 E-score
[7]
  binding signal: -0.149 E-score
[13]
  binding signal: -0.048 E-score
[14]
  binding signal: 0.041 E-score
[10]
  binding signal: 0.0147 E-score

## ACGCGATC
[1]
  binding signal: 0.314 E-score
[2]
  binding signal: -0.142 E-score
[12]
  binding signal: -0.0822 E-score
[3]
  binding signal: -0.00687 E-score
[4]
  binding signal: 0.0248 E-score
[5]
  binding signal: 0.402 E-score
[13]
  binding signal: -0.0727 E-score
[8]
  binding signal: -0.018 E-score
[9]
  binding signal: -0.0254 E-score
[10]
  binding signal: 0.0286 E-score
[11]
  binding signal: -0.0321 E-score

## AAGACCAA
[1]
  binding signal: -0.0153 E-score
[2]
  binding signal: 0.18 E-score
[3]
  binding signal: 0.172 E-score
[6]
  binding signal: -0.0774 E-score
[13]
  binding signal: 0.00577 E-score
[14]
  binding signal: -0.0103 E-score
[10]
  binding signal: 0.0393 E-score

## ACGAGAAA
[4]
  binding signal: 0.184 E-score
[6]
  binding signal: 0.206 E-score
[14]
  binding signal: 0.151 E-score
[10]
  binding signal: 0.0526 E-score
[11]
  binding signal: 0.0488 E-score

## ACACGCAA
[4]
  binding signal: 0.439 E-score
[5]
  binding signal: 0.498 E-score
[6]
  binding signal: 0.487 E-score
[14]
  binding signal: 0.477 E-score
[10]
  binding signal: 0.215 E-score

## ATTACTTC
[1]
  binding signal: 0.31 E-score
[6]
  binding signal: -0.0211 E-score
[14]
  binding signal: 0.347 E-score
[10]
  binding signal: 0.0617 E-score

## AAAGTCGT
[1]
  binding signal: -0.00168 E-score
[2]
  binding signal: 0.0143 E-score
[5]
  binding signal: -0.0387 E-score
[7]
  binding signal: 0.13 E-score
[13]
  binding signal: -0.0847 E-score
[14]
  binding signal: -0.026 E-score
[10]
  binding signal: -0.00954 E-score

## TGGAGTAA
[1]
  binding signal: 0.319 E-score
[2]
  binding signal: 0.105 E-score
[12]
  binding signal: 0.0261 E-score
[4]
  binding signal: 0.11 E-score
[6]
  binding signal: -0.0165 E-score
[7]
  binding signal: 0.317 E-score
[13]
  binding signal: -0.0934 E-score
[8]
  binding signal: 0.0609 E-score
[9]
  binding signal: 0.131 E-score
[10]
  binding signal: 0.0418 E-score
[11]
  binding signal: -0.0428 E-score

## CGAAGGAA
[1]
  binding signal: 0.176 E-score
[2]
  binding signal: 0.473 E-score
[12]
  binding signal: 0.0187 E-score
[13]
  binding signal: 0.459 E-score
[8]
  binding signal: -0.00821 E-score
[9]
  binding signal: 0.0445 E-score
[10]
  binding signal: 0.0667 E-score
[11]
  binding signal: -0.00171 E-score

## AACGTAAG
[2]
  binding signal: 0.196 E-score
[3]
  binding signal: 0.213 E-score
[4]
  binding signal: 0.255 E-score
[6]
  binding signal: 0.204 E-score
[7]
  binding signal: 0.262 E-score
[13]
  binding signal: 0.124 E-score
[8]
  binding signal: 0.289 E-score
[9]
  binding signal: 0.226 E-score
[10]
  binding signal: 0.0484 E-score
[11]
  binding signal: 0.019 E-score

## CACGCCAG
[2]
  binding signal: -0.139 E-score
[3]
  binding signal: -0.00392 E-score
[4]
  binding signal: 0.000215 E-score
[5]
  binding signal: 0.429 E-score
[6]
  binding signal: -0.0276 E-score
[7]
  binding signal: 0.0167 E-score
[13]
  binding signal: -0.111 E-score
[8]
  binding signal: 0.0346 E-score
[9]
  binding signal: -0.0421 E-score
[10]
  binding signal: 0.0297 E-score
[11]
  binding signal: -0.151 E-score

## ACGCCATG
[2]
  binding signal: -0.135 E-score
[12]
  binding signal: -0.019 E-score
[3]
  binding signal: -0.0142 E-score
[4]
  binding signal: 0.0141 E-score
[6]
  binding signal: 0.154 E-score
[13]
  binding signal: -0.0882 E-score
[8]
  binding signal: -0.105 E-score
[9]
  binding signal: 0.0848 E-score
[10]
  binding signal: -0.0411 E-score
[11]
  binding signal: -0.158 E-score

## AGGAAACC
[1]
  binding signal: 0.0188 E-score
[12]
  binding signal: 0.0445 E-score
[3]
  binding signal: -0.0505 E-score
[4]
  binding signal: -0.0359 E-score
[6]
  binding signal: -0.00742 E-score
[7]
  binding signal: -0.00773 E-score
[8]
  binding signal: 0.0389 E-score
[9]
  binding signal: -0.154 E-score
[10]
  binding signal: -0.0105 E-score
[11]
  binding signal: -0.181 E-score

## TACGCGAA
[2]
  binding signal: -0.00694 E-score
[12]
  binding signal: 0.023 E-score
[3]
  binding signal: 0.0984 E-score
[4]
  binding signal: 0.119 E-score
[6]
  binding signal: 0.0761 E-score
[13]
  binding signal: 0.0299 E-score
[8]
  binding signal: 0.0451 E-score
[9]
  binding signal: 0.0367 E-score
[10]
  binding signal: 0.2 E-score
[11]
  binding signal: -0.0407 E-score
